These results are taken from PubChem BioAssay AID1240 (Sanford-Burnham Center for Chemical Genomics, 2008).

About 800 (1.6%) of roughly 50,000 compounds showed an effect of 50% or more. The list shows a part of the results.

This test has as its target Bcl-2-like protein 10 (Homo sapiens) (UniProt Q9HD36). Nature of the test: TR3 peptide-Bcl-B binding displacers, biochemical primary FP assay, phenotype converters (AID 1240).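 Also: 0% = Bcl-B with tracer peptide and DMSO and 100% = tracer peptide lacking Bcl-B.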 As to conditions: GST-Bcl-B / FITC-TR3 peptide fluorescence polarization; stronger effect = higher value; compound at 3.75 mg/L.
Sequence of UniProt Q9HD36 (Q9HD36 whole entry, looked up): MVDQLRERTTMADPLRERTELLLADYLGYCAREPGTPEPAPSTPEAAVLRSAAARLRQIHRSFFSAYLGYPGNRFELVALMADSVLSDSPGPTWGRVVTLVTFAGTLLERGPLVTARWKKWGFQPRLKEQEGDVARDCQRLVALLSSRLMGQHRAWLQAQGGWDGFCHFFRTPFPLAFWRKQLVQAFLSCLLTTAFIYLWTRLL
In the case of `CCN1/C(=C\C=C\c2n(CCCS(=O)(=O)[O-])c3cc(C#N)ccc3[n+]2CC)Oc2ccc(-c3ccccc3)cc21`, the displacement stood at 14.4%.
`CCn1c(C(O)c2ccc(C)cc2)nc2ccccc21` (stereo not drawn): the displacement is -11.3%.
Turning to `O=C(NCC1CCCO1)c1cnn2c1NC(c1ccco1)CC2C(F)(F)F` (stereo not drawn), the displacement was determined as 2.8%.
For `CCN(CC)C(=O)N1c2ccccc2C=Cc2ccccc21`, the displacement was found to be 6.8%.
With `Clc1ccc(-c2ncnn2-c2ccccc2Cl)cc1`, the displacement was -6%.
For `Cc1cc(=O)[nH]c(Nc2ccccc2)n1`, the displacement is -8%.
Turning to `CCc1cccc(NC(=O)c2ccccc2Br)c1`, the displacement was 1.8%.
Consider `N/C(=N\N=C/c1ccc(F)cc1)N/N=C\c1ccc(F)cc1`, for which the displacement worked out at 6.4%.
The value for `CC1(C)CC(=O)C2=C(C1)N(c1ccccc1)C1=C(C2)C(=O)CC(C)(C)C1` was 7.8%; that for `CCN(CC)c1cc(C)c(C#N)c2nc3ccccc3n12` was -0.4%.
Next, `Cn1c(O)c(C=NCC2(C)CC(O)CC(C)(C)C2)c(=O)n(C)c1=S` (stereo not drawn): 3.2%; `CC(C)(C)c1ccc(OCCOc2ccc(C=C3C(=O)NC(=S)NC3=O)cc2)cc1`: -27.9%; `O=C(CC(c1ccccc1)c1ccccc1)c1ccc2c(c1)OCCO2`: 3.4%.
As to `COc1cc(C)nc(Nc2nc(C)c3cc(C)ccc3n2)n1`, the displacement is 107%.
As to `COc1cc(C=O)ccc1Oc1ccc([N+](=O)[O-])cc1`, the displacement was found to be 5%.
The value for `C/C(=N\Nc1nc(C)cc(=O)[nH]1)c1ccc(C)cc1` was -12.6%; that for `CCC(=O)Nc1ccc(NC(=O)c2ccc(Cl)c(Cl)c2)cc1` was 6.4%.
On to `COC(=O)CCC(=O)Nc1cccc(C(N)=O)c1`, for which the displacement is -6%.
For the compound `CCOc1cccc(/C=N/NC(=O)CSc2nc3ccccc3[nH]2)c1O`, the displacement is -19.5%.
The value for `O=C(CSc1ncccc1C(=O)O)Nc1ccccc1` was 14.6%.
For `O=C(CCc1ccccc1)Nc1cccc(Cl)c1Cl`, the displacement was -10.1%.
Consider `COc1ccc(C2CC(=O)C3=C(C2)Nc2ccccc2NC3c2ccc(C(F)(F)F)cc2)cc1` (stereo not drawn), for which the displacement is 3.4%.
Consider `COc1ccc(N(CC(=O)Nc2cc(C)cc(C)c2)S(C)(=O)=O)cc1`, for which the displacement came out at 8.5%.
The value for `COc1ccc(NS(=O)(=O)c2ccc(N/C=C\C(=O)c3ccccc3)cc2)nn1` was 2.8%; that for `CC(C)CC(=O)NC(NC(=S)Nc1cccc(Br)c1)C(Cl)(Cl)Cl` (stereo not drawn) was -1.3%; that for `CCOc1ccc(C(=O)Nc2ccc(N(CC)CC)cc2)cc1[N+](=O)[O-]` was 17.7%.
Turning to `COc1ccc(Cl)cc1NC(=O)COc1cc(C)c(Cl)c(C)c1`, the displacement was -5.9%.
In the case of `O=C(Nc1ccc(OC(F)(F)C(F)F)cc1)c1ccc(Cl)c([N+](=O)[O-])c1`, the displacement was -3%.
With `COc1ccccc1N1CCN(/N=C\c2cc(Br)c(O)c(OC)c2)CC1`, the displacement is 10.8%.
The value for `CCc1ccc(/C(C)=N/Nc2cc(-n3cc(C)cn3)ncn2)cc1` was -10.3%; that for `Cc1cc([N+](=O)[O-])ccc1NC(=S)NC(=O)/C=C/c1ccccc1` was 9%.
Next, `COc1cc(/C=C2\C(=O)NC(=O)N(c3ccc(C)cc3)C2=O)cc(Cl)c1O`: 7.1%; `COc1cc(C(=O)NC(NC(=S)Nc2ccc(C(C)=O)cc2)C(Cl)(Cl)Cl)cc(OC)c1OC` (stereo not drawn): 7.8%; `COCCOC(=O)C1=C(C)NC(=S)NC1c1ccccc1OC` (stereo not drawn): 8.7%.
The value for `COc1ccc(Cc2noc(COc3ccc4ccccc4c3)n2)cc1OC` was -2.7%; that for `CCOc1cc(/C=C/c2[nH]c(=O)[nH]c(=O)c2[N+](=O)[O-])ccc1O` was 0%.
On to `CC(=O)N/N=C/c1cc(C)n(-c2cc(Cl)ccc2Cl)c1C`, for which the displacement is -0.2%.
For `Cc1oc2cc(Br)c(OS(C)(=O)=O)cc2c1C(=O)OC(C)C`, the displacement was determined as 8.8%.
Turning to `CC(C)CCNC(=O)C(=O)Nc1cccc(Cl)c1`, the displacement stood at 3%.
In the case of `Nc1nonc1C(=O)N/N=C/c1cn[nH]c1-c1ccccc1`, the displacement is -5.4%.
Take `CCc1ccc(S(=O)(=O)n2nnc3ccccc32)cc1`: the displacement was determined as 7.2%.
The value for `CCOC(=O)C1Cc2cc3c(cc2C1=O)CC(C(=O)OCC)C3=O` (stereo not drawn) was 19%.
Turning to `O=C1OC(c2cccc(F)c2)=N/C1=C\c1cccs1`, the displacement amounted to 19.4%.
For the compound `O=C(NCc1ccccn1)C(=O)N/N=C/c1ccccc1C(F)(F)F`, the displacement was -19.3%.
Consider `CCOc1ccc(C2=C/C(=C/c3ccc(Cl)cc3)C(=O)O2)cc1`, for which the displacement is -3.8%.
For `Cc1ccc2c(Cl)c(C(=O)Nc3ccccn3)sc2c1`, the displacement was -8.6%.
`Cc1cccc(OCCOCCN2CCN(C)CC2)c1`: the displacement was -81.2%.
Next, `CC(C)(C)c1ccc(OCCOc2ccc(C=C3C(=O)NC(=O)NC3=O)cc2)cc1`: 12.3%.
Next, `COc1c(O)ccc(/C=N/NC(=O)COc2c(Br)cc(Br)cc2Br)c1[N+](=O)[O-]`: 5.9%; `CCc1ccccc1NC(=O)/C(=C/c1ccccc1)c1ccccc1`: 5.6%.
The value for `O=C(c1ccc(-c2ccccc2)cc1)N1CCN(Cc2ccc3c(c2)OCO3)CC1` was -1.6%; that for `COc1ccc(CN2CCN(C3CCCC3)CC2)cc1Br` was -7.4%.
Take `CCOC(=O)C1=C(O)/C(=C/c2ccc(O)cc2)SC1=Nc1cccc(Cl)c1`: the displacement is 0.1%.
Consider `CCN1/C(=C/C=Nc2ccccc2)Oc2ccccc21`, for which the displacement was 14.9%.
On to `CCC(Sc1nc(-c2ccccc2)cc(-c2ccccc2)n1)C(=O)Nc1nnc(C)s1` (stereo not drawn), for which the displacement came out at 13.2%.
`O=C(c1ccc2c(c1)OCO2)N1CCC(CN2C(=O)c3cccc4cccc(c34)C2=O)CC1`: the displacement stood at 11.3%.
For the compound `Clc1ccccc1-c1nc(-c2cccnc2)no1`, the displacement is 3.3%.
`Cc1c(C(=O)NN2CCOCC2)cccc1[N+](=O)[O-]`: the displacement turned out to be 4.2%.
On to `CCC(=O)N1c2ccccc2NC2=C(C(=O)CC(c3ccc(OC)cc3)C2)C1c1ccccc1` (stereo not drawn), for which the displacement came out at 8.5%.
For the compound `COc1ccc(NS(=O)(=O)c2ccc(C)c([N+](=O)[O-])c2)cc1`, the displacement was 14.8%.
In the case of `O=C(N/N=C/c1ccc(O)cc1O)c1ccc([N+](=O)[O-])cc1`, the displacement is -28.9%.
`Cc1cccc(OCc2nnc(NC(=O)Nc3ccccc3)s2)c1`: the displacement was determined as 1.3%.
As to `Cc1cc(OCC(=O)N2CCCCC2)ccc1Br`, the displacement is -7.4%.
`COc1ccc(OC)c(N(CC(=O)Nc2ccc(C)cc2C)S(C)(=O)=O)c1`: the displacement is 8.6%.
For the compound `Cc1ccc(C(=O)/C(=C\c2ccc(F)cc2)c2nc3ccccc3o2)cc1`, the displacement was 12.7%.
The value for `CCOc1ccc(NC(=O)CCCOc2ccccc2)cc1` was -10.2%; that for `O=S(=O)(N/N=C/c1cccc(F)c1)c1ccccc1` was -8.1%; that for `O=C(NCC1CCCO1)c1nn2c(c1Cl)NC(c1ccco1)CC2C(F)(F)F` (stereo not drawn) was 1.6%.
On to `Cc1cc([N+](=O)[O-])ccc1NCc1ccco1`, for which the displacement was -0.7%.
`CCCCOC(=O)c1cccc(-c2ccc(/C=C3\C(=O)N(c4ccc(S(N)(=O)=O)cc4)N=C3C)o2)c1`: the displacement worked out at 7.4%.
Consider `COc1ccc(N2C(=O)C3C(C2=O)C2(C)C(=O)C3(C)C(c3ccccc3)=C2c2ccccc2)cc1` (stereo not drawn), for which the displacement came to 6.9%.
Take `Cc1cccc2sc(NC(=O)/C=C\C(=O)O)nc12`: the displacement amounted to 10.5%.
Next, `CCCOC(=O)c1ccc(NS(=O)(=O)c2c(C)cc(C)cc2C)cc1`: 3.3%.
Next, `COc1ccc(C(=O)Nc2ccc(O)c(-c3nc4ccccc4o3)c2)cc1OC`: -0.4%; `CC1(C)N([O-])C(c2cccs2)=C[N+]1=O`: 14.4%; `COc1ccc2c(Cl)c(C(=O)Nc3ccc(N4CCOCC4)cc3)sc2c1`: -14.4%.
Regarding `Cn1c(=O)n(CCOc2ccc(Br)cc2)c2ccccc21`, the displacement came out at 14.7%.
Turning to `C=CCc1cccc2cc(C(=O)Nc3ccc(OCC)cc3)c(=O)oc12`, the displacement was 53.1%.
For the compound `O=C1NC(=S)N(c2ccc(Cl)cc2)C(=O)/C1=C/c1ccc(Oc2ccc([N+](=O)[O-])cn2)cc1`, the displacement came to 4.4%.
Next, `CCOc1ccc(C(=O)NCc2cccnc2)cc1Br`: 0.7%.
In the case of `CC1CCC(N2CCN(C(=O)c3ccc([N+](=O)[O-])cc3)CC2)CC1` (stereo not drawn), the displacement is -7.5%.
Next, `O=C(O)CCC(=O)NNc1nc(-c2ccccc2)c2cc(Br)ccc2n1`: -9.3%; `CCOC(=O)C1=C(O)/C(=C/c2ccc(N(CC)CC)cc2)SC1=Nc1ccccc1`: -95.4%.
Take `CC(=O)N1c2ccc(N)cc2C(C)(c2ccccc2)CC1(C)C` (stereo not drawn): the displacement was -6%.
For the compound `O=C(Nc1ccc(OC(F)(F)F)cc1)c1cc(I)ccc1Cl`, the displacement was found to be 4.8%.
On to `COc1ccc(NC(=O)CSc2nc(C)cc(C)n2)cc1`, for which the displacement was 5.2%.
`COc1ccc(CC(=O)Nc2sc3c(c2C(=O)Nc2ccccc2C)CCCCC3)cc1`: the displacement amounted to 1.9%.
With `CC(C)(C)c1cc(Cn2cc3cc([N+](=O)[O-])ccc3n2)cc(C(C)(C)C)c1O`, the displacement was -14.3%.
As for `CCOc1cc(/C=C2\SC(N3CCCCCC3)=NC2=O)ccc1O`, the displacement is -16.7%.
In the case of `Cc1nnc(SCC(=O)NCC(=O)c2ccccc2)s1`, the displacement stood at 0.6%.
For `CN1C(=O)/C(=C/c2ccc3c(c2)OCO3)SC1=S`, the displacement is 80.3%.
The value for `COC(=O)C1=C(C)NC2=C(C(=O)CC(C)(C)C2)C1c1ccccc1I` (stereo not drawn) was 11.9%; that for `COc1cc(/C=C2\C(=O)NC(=O)N(Cc3ccccc3)C2=O)ccc1OCC(N)=O` was -3.6%; that for `CCCCP(=O)(CCCC)CCP(=O)(CCCC)CCCC` was -1.8%.
As to `COc1ccc(C(=O)Nc2ccc([N+](=O)[O-])cc2Cl)c(OC)c1`, the displacement is 4.7%.
Take `Cc1cc(C)c2c(c1)NC(c1ccc([N+](=O)[O-])cc1)C1CC=CC21` (stereo not drawn): the displacement was found to be 5.2%.
On to `COc1cc(C=C2C(=O)NC(=O)NC2=O)cc(Br)c1OCc1c(C)no[n+]1[O-]`, for which the displacement is 29.9%.
In the case of `CCOc1ccc(-c2csc(/C(C#N)=C\Nc3cc(OC)ccc3OC)n2)cc1`, the displacement worked out at 4.6%.
In the case of `COc1ccccc1-n1c(SCC(=O)Nc2ccccc2C)nc(O)cc1=O`, the displacement was -7.4%.
Take `O=C(CCCOc1ccc(Cl)cc1Cl)Nc1ccc([N+](=O)[O-])cc1Cl`: the displacement was -11.9%.
For the compound `CC1=C(C(=O)OC(C)C)C(c2cccc(F)c2)C2=C(CCCC2=O)N1` (stereo not drawn), the displacement is 7.9%.
Regarding `CC(=O)C1=C(N2CCOCC2)CC(C)(C)CC1=O`, the displacement was 4.9%.
The value for `O=C(COc1ccccc1)NCC(=O)N/N=C/c1cccs1` was 3.7%.
Turning to `O=C(CC1Sc2ccccc2NC1=O)Nc1ccc(SC(F)(F)F)cc1` (stereo not drawn), the displacement is -13.2%.
`Cc1oc2c(CN3CCCC3)c(O)ccc2c(=O)c1-c1nc2ccccc2s1`: the displacement was determined as 12.7%.
Consider `COc1ccc2c(c1)CC/C2=N\OC(=O)c1ccccc1OC`, for which the displacement was -6.4%.
Turning to `COc1ccc(CCNC(=O)C2CC(=O)N(c3ccc(Br)cc3)C2)cc1OC` (stereo not drawn), the displacement was found to be 5.1%.
Take `O=[N+]([O-])c1ccc(S(=O)(=O)Nc2ccc(Nc3ccccc3)cc2)cc1`: the displacement worked out at 1%.
